Reference: PubChem BioAssay AID330 (DTP/NCI, 2004)
Inconclusive results and toxic doses are left out. For part of its entries the source gives two or more results. The list is limited to them. An entry can have further records. The records of an entry differ, and nothing given here explains why; some may be repeats, others may stem from another dose, organism or construct than stated.

Tested on: P388 leukemia ip, CD2F1 mice, survival T/C
Assay: NCI In Vivo Anticancer Drug Screen. Data for tumor model P388 Leukemia (intraperitoneal) in CD2F1 (CDF1) mice
Conditions: endpoint: median survival time, higher = longer survival

O=NN(CCCl)C(=O)NCCO was tested, and the T/C (dose: 1.56 mg/kg/injection, schedule: Q01DX005 (ip), vehicle: water) was 102 % of control and 168 % of control and the T/C (dose: 6.25 mg/kg/injection, schedule: Q01DX005 (ip), vehicle: water) was 101 % of control and 346 % of control.

O=P1(N(CCCl)CCCl)NCCCO1 (stereo not given) was tested, and the T/C (dose: 160.0 mg/kg/injection, schedule: Q04DX003 (ip), vehicle: saline) was 100 % of control and 336 % of control and the T/C (dose: 240.0 mg/kg/injection, schedule: Q04DX003 (ip), vehicle: saline) was 106 % of control, 111 % of control, 153 % of control.

In the case of Cc1c(CNc2ccc(C(=O)NC(CC(=O)O)C(=O)O)cc2)ccc2nc(N)nc(N)c12 (stereo not given), the T/C (dose: 25.0 mg/kg/injection, schedule: Q04DX003 (ip), vehicle: saline with Tween-80) is reported as 86 % of control and 181 % of control.
